According to the RNAGym collection of RNA variant scans (doi:10.1073/pnas.2313332121):
Variants at the floor of the assay are shown more often than the library holds them.

B1: TPR 5TU (parent)
chain: GGAUCUUCUCGAUCUAACAAAAAAGACAAAUCUGCCACAAAGCUUGAGAGCAUCUUCGGAUGCAGAGGCGGCAGCCUUCGGUGGCGCGAUAGCGCCAACGUUCUCAACUAUGACACGCAAAACGCGUGCUCCGUUGAAUGGAGUUUAUCAUG

Variants of: B1
Experiment: polymerase ribozyme fitness, log enrichment relative to wild type (log ratio); higher = more active; in vitro selection for triplet polymerase activity
How it was run: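 Mutant libraries for each subunit of a heterodimeric triplet polymerase ribozyme were made by PCR and then transcribed. Each library underwent one round of in vitro selection in triplicate: annealing with a biotinylated primer, the partner subunit and triplets, frozen incubation at −7 °C, gel excision of extended constructs, streptavidin-bead capture and RT-PCR. Input and output libraries were Illumina-sequenced, and only genotypes with ≥10 input reads and ≥1 read per output were kept. Fitness is the logarithm, base 2, of genotype enrichment over wild-type enrichment, computed from inverse-variance-weighted replicate averages.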

| Variant | polymerase ribozyme fitness (log ratio) |
| --- | --- |
| GGAUCUUCUCGAUCUAACAAAAAAGAGAAAUCUGCCACAAAGCUUGAGAGCAUCUUCGGAUGCAGAGGCAGCACCCUUCGGUGGCGCGAUAGCGCCAACGUUCUCAACUAUGACACGCAAAACGCGUGCUCCGUUGAAUGGAGUUUAUCAUG [C27G G70A G74C] | ≤ -4.2 |
| GGAUCUUCUCGAUCUAACAAAAAAGAGAAAUCUGCCACAAAGCUUGAGAGCAUCUUCGGAUGCAGACGCGGCAGCCUUCGGUGGAGCGAUAGCGCCAACGUUCUCAACUAUGACACGCAAAACGCGUGCUCCGUUGAAUGGAGUUUAUCAUG [C27G G67C C85A] | ≤ -4.2 |
| GGAUCUUCUCGAUCUAACAAAAAAGAGAAAUCUGCCACAAAGCUUGAGAGCAUCUUCGGAUGCAGAGGCGGCAGCCUUCGGUGGCGGGAUAGCGCCAACGUUCUCAACUAUGACACGCAAAACGCGUGCUCCCUUGAAUGGAGUUUAUCAUG [C27G C87G G133C] | ≤ -4.2 |
| GGAUCUUCUCGAUCUAACAAAAAAGAGAAAUCUGCCACAAAGCUUGAGAGCAUCUUCGGAUGCAGAGGCGGCAGCCUUCGGUGGCGCGAUAGCGACAACGUUCUCAACUAUGACACGCAAAACGCGUGCUCCGUUGAAUGCAGUUUAUCAUG [C27G C95A G141C] | -3.77 |
| GGAUCUUCUCGAUCUAACAAAAAAGAGAAAUCUGCCACAAAGCUUGAGAGCAUCUUGGGAUGGAGAGGCGGCAGCCUUCGGUGGCGCGAUAGAGCCAACGUUCUCAACUAUGACACGCAAAACGCGUGCUCCGUUGAAUGGAGUUUAUCAUG [C27G C57G C63G C93A] | ≤ -4.2 |
| GGAUCUUCUCGAUCUAACAAAAAAGAGAAAUCUGCCACAAAGCUUGAGAGCAUCUUCGGAUGCAGAGGCGGCAGCCUUCGGUGGCGCGAUAGCGCCAACGUUCUCAAGUAUGACACGCAAAACGCGUGCUCCGUUGAAUGGAGUUUAUCAUG [C27G C108G] | ≤ -4.2 |
| GGAUCUUCUCGAUCUAACAAAAAAGAGAAAUCUGCCACAAAGCUUGAGAGCAUCUUUGGAUGCAGAGGCGGCAGCCUUCGGUGGCGCGAUAGCGCGAACGUUCUCAACUAUGACAUCCAAAACGCGUGCUCCGUUGAAUGGAGUUUAUCAUG [C27G C57U C96G C116U G117C] | ≤ -4.2 |
| GGAUCUUCUCGAUCUAACAAAAAAGAGAAAUCUGCCACAAAGCUUGAGAGCAUCUUCGGAUGCAGAGGCGGCAGCUUUCGGUUGCGCGAUAGCGCCAACGUUCUCAACUAUGACUAGCAAAACGCGUGCUCCGUUGAAUUGAGUGUAUCAUG [C27G C76U G83U A115U C116A G140U U145G] | ≤ -4.2 |
| GGAUCUUCUCGAUCUAACAAAAAAGAGAAAUCUGCCACAAAGCUUGAGAGCAUCUUCGUAUGCAGAGGUGGCGGCCUUCGGUGGCGCGAUAGCGCCAACGUUCUCAACUAUGACACGCAAAACGCGUGCUCCGUUGAAUGGAGUGUAUCAUG [C27G G59U C69U A73G U145G] | ≤ -4.2 |
| GGAUCUUCUCGAUCUAACAAAAAAGAGAAAUCUGCCACAAAGCUUGAGAGCAUCUUCGUAUGAACAGGCGGCAGCCUACGGUGGCGCUAUAGCGCCAACGUUCUCAACUAUGACACGCAAAACGCGUGCUCCGUUGAAUGGAGUUUAUCAUG [C27G G59U C63A G65C U78A G88U] | ≤ -4.2 |
| GGAUCUUCUCGAUCUAACAAAAAAGAGAAAUCUGCCACAAAGCUUGAGAGCAUCUUCGGAUGCAGAGGCGGCAGCAUUCGGUGGCGCGAUAGCGCCAACGUUCUCAACUAUGACACGCAAAACGCGUGCUCCGUUGAAUGGAGUUUAUCAUG [C27G C76A] | -3.63 |
| GGAUCUUCUCGAUCUAACAAAAAAGAGAAAUCUGCCACAAAGCUUGAGACUAUCUUCGGAUGCAGAGGCGGCAGCCUUUGGUGGCGCGAUAGUGCCAACGUUCUCAACUAUGACACGCAAAACGCGUGCUCCGUUGAAUGGAGUUUAUCAUG [C27G G50C C51U C79U C93U] | ≤ -4.2 |
| GGAUCUUCUCGAUCUAACAAAAAAGAGAAAUCUGCAACAAAGCUUGAGAGCAUCUUCGGAUGCAGAGGCGGCAGCAUUCGGUGGCGCGAUAGCGCCUACGUUGUCAACUAUGACACUCAAAACGCGUGCUCCGUUGAAUGGAGUUUAUCAUG [C27G C36A C76A A97U C103G G117U] | ≤ -4.2 |
| GGAUCUUCUCGAUCUAACAAAAAAGAGAAAUCUGCCACAAAGCUUGAGAGCAUCUUAGGAUGCAGAGGCGGCAGCCUUCGGUGGCGCGAUUGCGUCAACGUUCUCAACUAUGACACGCAAAACGCGUGCUCCGUUGAAUGGAGUUUAUCAUG [C27G C57A A91U C95U] | ≤ -4.2 |
| GGAUCUUCUCGAUCUAACAAAAAAGAGAAAUCUGCCACAAAGCUUGAGAGCAUCUUCGGAUGCAGAGGCGGCAGCCUUCGGUGGCGCGAUAGCGCCAACGUUCUCAACUAUGACAUGCAAAACGCGUGCUCCGUUGAAUGGAGUUUAUCAUG [C27G C116U] | ≤ -4.2 |
| GGAUCUUCUCGAUCUAACAAAAAAGAGAAAUCUGCCAAAAAGCUUGAGAGCAUCUUCGGAUGCAGAGGCGGCAGCCUUCGGUCGCGCGAUAGCGCCAACGUUCGUAACUAUGACACGCAAAACGCGUGCUCCGUUGAAUGGAGUUUAUCAUG [C27G C38A G83C U104G C105U] | ≤ -4.2 |
| GGAUCUUCUCGAUCUAACAAAAAAGAGAAAUCUGCCACAAAGCUUGAGAGCAUAUUCGGAUGCAGAGGCGGCAACCUUCGGUGGCGGGAUAGCGCCAACGUGCUCAACUAUGACACGCAAAACGCGUGCUCCGUUGAAUGGAGUUUAUCAUG [C27G C54A G74A C87G U102G] | ≤ -4.2 |
| GGAUCUUCUCGAUCUAACAAAAAAGAGAAAUCUGCCAUAAAGCUUGAGCGCAUCUUCGGAUGCACAGGCGGCAGCCUUCGGUGGCGGGAUAGCGCCAACGUUCUCAACUAUGAAACGCGAAACGCGUGCUCCGUUGAAUGGAGUAUAUCAUG [C27G C38U A49C G65C C87G C114A A119G U145A] | -4.07 |
| GGAUCUUCUCGAUCUAACAAAAAAGAGAAAUCUGCCACAAAGCUUGAGAGUAUCUUCGGAUGCAGAGGCGGCAGCCUUCCGUGGCUCGAUAGCGCCAACGUUCUCAACUAUGACACGCAAAACGCGUGCUCCGUUGAAUGGAGUUUAUCAUG [C27G C51U G80C G86U] | ≤ -4.2 |
